The campaign covered roughly 360,000 compounds. About 660 (0.18%) were called active. The inconclusive results got no clear call from the source; some entries with a clear call stand among them for comparison. The call rests on the fitted dose curve; in most records, active means well fitted inhibition curve with a large enough effect; inconclusive means small, poorly fitted or top-dose-only effect; inactive means no such curve, though single readings can be large or run the other way. Potencies of inconclusive entries are left out as doubtful fits.
The compounds below were run against Rap guanine nucleotide exchange factor 4 (Homo sapiens) (UniProt Q8WZA2) (assay: qHTS for Antagonist of cAMP-regulated guanine nucleotide exchange factor 2 (EPAC2): primary screen). Conditions: EPAC2 GEF exchange of Rap1B-BODIPY-GDP, fluorescence; activity, negative = inhibition: at 114 µM (top of the series) unless noted.
UniProt Q8WZA2, sequence (Q8WZA2 whole entry, looked up): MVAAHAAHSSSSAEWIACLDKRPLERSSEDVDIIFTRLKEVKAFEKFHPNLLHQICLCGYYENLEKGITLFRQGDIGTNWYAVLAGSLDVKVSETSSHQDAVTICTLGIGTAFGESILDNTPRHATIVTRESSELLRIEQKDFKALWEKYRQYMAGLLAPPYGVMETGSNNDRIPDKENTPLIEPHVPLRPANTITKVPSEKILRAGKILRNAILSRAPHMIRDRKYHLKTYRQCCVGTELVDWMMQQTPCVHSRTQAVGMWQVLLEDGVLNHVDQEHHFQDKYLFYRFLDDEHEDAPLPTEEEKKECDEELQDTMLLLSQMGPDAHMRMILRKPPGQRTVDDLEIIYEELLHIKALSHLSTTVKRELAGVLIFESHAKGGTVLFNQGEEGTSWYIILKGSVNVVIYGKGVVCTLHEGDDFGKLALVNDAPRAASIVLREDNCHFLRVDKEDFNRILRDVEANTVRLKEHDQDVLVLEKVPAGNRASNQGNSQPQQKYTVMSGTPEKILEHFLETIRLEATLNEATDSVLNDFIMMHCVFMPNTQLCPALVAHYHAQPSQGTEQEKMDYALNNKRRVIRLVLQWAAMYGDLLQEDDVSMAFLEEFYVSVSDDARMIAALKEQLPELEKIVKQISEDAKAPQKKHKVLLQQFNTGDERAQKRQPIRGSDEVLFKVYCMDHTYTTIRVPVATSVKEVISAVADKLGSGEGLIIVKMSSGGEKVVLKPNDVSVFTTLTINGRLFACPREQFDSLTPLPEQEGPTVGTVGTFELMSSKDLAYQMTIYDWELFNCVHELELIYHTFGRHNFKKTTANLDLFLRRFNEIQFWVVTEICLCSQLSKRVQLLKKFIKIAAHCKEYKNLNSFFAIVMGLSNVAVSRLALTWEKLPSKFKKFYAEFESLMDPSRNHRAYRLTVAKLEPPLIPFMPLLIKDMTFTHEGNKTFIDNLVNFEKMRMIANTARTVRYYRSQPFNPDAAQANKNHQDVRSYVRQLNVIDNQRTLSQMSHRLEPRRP
In the case of `N#CC1=C(N)Oc2cc(N)ccc2C1c1cc(Br)cs1` (centres undefined), the Potency is reported as inconclusive [inhibitor, partial curve].
In the case of `CCc1nc2ccc(C(=O)N(C)C(C)C)cn2c1N(CC)Cc1cccc(Br)c1`, the Potency is reported as inconclusive [inhibitor, full curve, poor fit].
For `COc1ccc2[nH]c(S(=O)Cc3ncc(C)c(OC)c3C)nc2c1` (centres undefined), the Potency was “inactive”.
In the case of `COc1cc(C(=O)OCC(=O)N2CCCCC2C)cc(NC(=O)c2cccs2)c1OC` (centres undefined), the Potency is reported as inconclusive [inhibitor, full curve, poor fit].
`C#Cc1ccc(CN2CCN(CCc3ccccc3)C(CCO)C2)cc1` (centres undefined) was tested, and the “activity, negative = inhibition” value was inactive: 0.312%.
For `CCOc1nc(-c2ccccc2)c2cc(C)ccc2n1`, the Potency was inconclusive [inhibitor, partial curve].
For `COc1ccccc1-c1oc2ccccc2c1-c1ccc2cc[nH]c2c1`, the Potency was inconclusive [inhibitor, partial curve].
In the case of `CC(C)(C)c1ccc(OCCC(=O)Nc2cccc(S(=O)(=O)N3CCCC3)c2)cc1`, the Potency is reported as inconclusive [inhibitor, full curve].
For `O=S(=O)(NCc1ccccc1Br)c1ccccc1Br`, the Potency was inconclusive [inhibitor, full curve, poor fit].
In the case of `O=C1C=CC(=O)C(C2=C3C(=O)N(CCc4ccccc4)CC(=O)N3CCC2)=C1`, the “activity, negative = inhibition” value is reported as inactive: -0.972%.
`COc1cccc(C2=CC(=O)C(C(C)(C)C)N2C(C)(C)C)c1` (centres undefined) was tested, and the Potency was inconclusive [inhibitor, partial curve].
In the case of `Cc1ccc2oc(=O)n(CCCOc3ccccc3C)c2c1`, the Potency is reported as inconclusive [inhibitor, partial curve].
In the case of `CC(C)c1ccc(OCC(=O)N2CCCCCC2)c(Br)c1`, the “activity, negative = inhibition” value is reported as inactive: -15%.
In the case of `CN(C)C(=O)c1ccc(NC(=O)c2cc(-c3ccco3)nc3ccccc23)cc1`, the “activity, negative = inhibition” value is reported as inactive: 10.5%.
In the case of `C=C1[C@@H](O)[C@H](Cc2ccccc2)N(Cc2ccccc2Br)S1(=O)=O`, the Potency is reported as inconclusive [inhibitor, partial curve, poor fit].
With `COCCCNC(=O)C[C@@H]1C[C@@]2(C(=O)OC)CC(C)(C)CC=C2N(Cc2ccccc2)C1=O` the “activity, negative = inhibition” value was inactive: -6.42%.
`Cc1[nH]n(C(N)=S)c(=O)c1N=Nc1ccc([N+](=O)[O-])cc1Cl` was tested, and the Potency was inconclusive [inhibitor, partial curve].
`CC(=O)N1c2ccc(S(=O)(=O)N(C)CC(=O)Nc3ccccc3C)cc2CC1C` (centres undefined) was tested, and the “activity, negative = inhibition” value was inactive: 3.69%.
With `O=S(=O)(Nc1cc(Cl)ccc1-n1cncn1)c1cc(Br)ccc1Br` the Potency was inconclusive [inhibitor, partial curve].
`Fc1ccc2cnc(-c3ccccc3)c(-c3cccc(C(F)(F)F)c3)c2c1` was tested, and the Potency was inconclusive [inhibitor, partial curve].
For `COc1cccc(/C=N/NC(=O)c2[nH]nc3c2CCc2ccccc2-3)c1O`, the Potency was inconclusive [inhibitor, single point].
With `COC(=O)c1sccc1NC(=O)Nc1ccc(C(C)=O)cc1` the “activity, negative = inhibition” value was inactive: 6.86%.
In the case of `COc1cc(/C=C/C(=O)O)cc(S(=O)(=O)Nc2ccccc2C(=O)NCCc2ccccc2)c1OC`, the Potency is reported as inconclusive [inhibitor, partial curve].
With `O=C(CSc1nc2ccc(Cl)cc2o1)NCc1ccc2c(c1)OCO2` the “activity, negative = inhibition” value was inactive: -11.8%.
In the case of `CCCCCCN1C[C@@H](n2cc(COC(=O)c3ccccc3)nn2)[C@H](O)C[C@@H]1c1ccc(C)cc1`, the “activity, negative = inhibition” value is reported as inactive: -19%.
For `O=C1NC(Cc2ccc(O)cc2)c2nc3ccccc3c(=O)n2-c2ncccc21` (centres undefined), the “activity, negative = inhibition” value was inactive: -3.51%.
`Cc1[nH]nc2c1C(c1cccnc1)N(c1ccc(Br)cc1)C2=O` (centres undefined) was tested, and the “activity, negative = inhibition” value was inactive: -0.413%.
`CC(=O)N(Cc1ccc(Br)cc1)c1cccc(C)c1C` was tested, and the Potency was inconclusive [inhibitor, partial curve].
For `O=C(COc1cccc2ccccc12)N/N=C/c1ccccc1OCc1ccc(C(=O)O)cc1`, the Potency was inconclusive [inhibitor, partial curve].
For `C/C(=N\NC(=O)c1ccccc1F)c1ccc2c(c1)Nc1ccccc1S2`, the Potency was inconclusive [inhibitor, partial curve, poor fit].
`CC(C)COc1ccc(-c2nnn(CC(=O)N3CCCC3)n2)cc1` was tested, and the “activity, negative = inhibition” value was inactive: -2.77%.
With `O=C(O)c1ccccc1NS(=O)(=O)c1ccc(NN=Cc2cccc(Cl)c2)c([N+](=O)[O-])c1` the Potency was inconclusive [inhibitor, single point].
`Cc1cc(C)c(S(=O)(=O)c2ccccc2C)c(SCC(C)C)n1` was tested, and the Potency was inconclusive [inhibitor, full curve].
With `COc1ccc(/C=C(\C#N)c2c[nH]c3ccccc23)cc1` the Potency was inconclusive [inhibitor, full curve, poor fit].
With `CCOC(=O)C1C(=O)C=C(c2ccc(C)cc2)CC1c1ccccc1` (centres undefined) the Potency was inconclusive [inhibitor, partial curve].
`CCOc1ccc(NC(=O)Nc2ccccc2SC)cc1` was tested, and the “activity, negative = inhibition” value was inactive: -5.37%.
`CCN(CC)CCN(C(=O)c1ccc(S(=O)(=O)N2CCCCC2)cc1)c1nc2cc3c(cc2s1)OCO3` was tested, and the Potency was inconclusive [inhibitor, single point].
In the case of `C[n+]1cccc2cccc([O-])c21`, the Potency is reported as inconclusive [inhibitor, single point].
`COc1cc(OC)cc(C(=O)NNC(=O)CCC(=O)c2cccs2)c1` was tested, and the “activity, negative = inhibition” value was inactive: -5.26%.
`CCOC(=O)c1sc(NC(=O)c2ccncc2)nc1C` was tested, and the Potency was inconclusive [inhibitor, single point].
In the case of `Cc1ccc(C23CC4CC(CC(C(=O)N(C)C)(C4)C2)C3)cc1`, the Potency is reported as inconclusive [inhibitor, partial curve].
With `Nc1ncnc2c1ncn2[C@@H]1O[C@H](C(=O)NCCc2ccc(F)cc2)[C@@H](O)[C@H]1O` the Potency was inconclusive [inhibitor, single point].
With `OCCC1CN(Cc2ccccn2)CCN1C1CCCC1` (centres undefined) the “activity, negative = inhibition” value was inactive: 8.16%.
In the case of `O=C(CSc1ccc(C(F)(F)F)cn1)Nc1ccccc1`, the “activity, negative = inhibition” value is reported as inactive: -4.8%.
In the case of `CC1(C(=O)NS(=O)(=O)c2ccc3c(c2)CCO3)CCN1C(=O)C1(c2ccc(Cl)cc2)CCC1` (centres undefined), the Potency is reported as inconclusive [inhibitor, partial curve].
`COc1cc2cnc(-c3ccccc3)c(-c3cccc(C(F)(F)F)c3)c2cc1OC` was tested, and the Potency was inconclusive [inhibitor, full curve].
In the case of `O=C(/C=C/c1ccccc1)c1ccc(NC2=NCCCS2)cc1`, the “activity, negative = inhibition” value is reported as inactive: -5.4%.
With `Oc1ccc(/C=N/Nc2nccnc2Cl)cc1` the “activity, negative = inhibition” value was inactive: -2.94%.
With `CCCCC[C@H](C)N1C[C@@H](COCc2ccccc2)Oc2cc(N3CCC[C@H]3CO)ccc2S1(=O)=O` the Potency was inconclusive [inhibitor, full curve, poor fit].
`CCOC(=O)Nc1cccnc1Sc1ccc(Cl)cc1` was tested, and the Potency was inconclusive [inhibitor, partial curve].
For `N#CCCN(C(=O)COC(=O)CCc1nc2ccccc2c(=O)[nH]1)c1ccccc1F`, the “activity, negative = inhibition” value was inactive: 6.89%.
In the case of `Cc1ccc(C2CC(=O)Oc3cc(C)cc(C)c32)cc1` (centres undefined), the Potency is reported as inconclusive [inhibitor, full curve].
With `O=C(Nc1ccc(CN2CCCCC2)cc1)Nc1ccc(Br)cc1Cl` the “activity, negative = inhibition” value was inactive: -15.5%.
For `COc1ccc(-c2cc(N)n(S(=O)(=O)c3c(F)c(F)c(F)c(F)c3F)n2)cc1OC`, the Potency was inconclusive [inhibitor, partial curve].
`CCOC(=O)CC1(C)NC(C(=O)O)C(C)(C)S1` (centres undefined) was tested, and the “activity, negative = inhibition” value was inactive: 1.22%.
`C=C1C(=O)O[C@@H]2[C@H]3O[C@]3(C)CC/C=C(\C)CC[C@@H]12` was tested, and the “activity, negative = inhibition” value was inactive: 7.92%.
`CC1=C(C(=O)OC(C)C)C(c2ccc(C)o2)C(C(=O)OC(C)C)=C(C)N1` was tested, and the Potency was inconclusive [inhibitor, partial curve].
In the case of `O=Nc1c(O)n(Cc2cccc(C(F)(F)F)c2)c2ccccc12`, the Potency is reported as inconclusive [inhibitor, partial curve].
With `O=C(O)CSc1nnc(Cc2cccc3ccccc23)n1-c1cc(C(F)(F)F)cc(C(F)(F)F)c1` the Potency was inconclusive [inhibitor, single point].
For `Cc1c(C(=O)N2CCCc3ccccc32)oc2ccccc12`, the Potency was inconclusive [inhibitor, partial curve].
With `CC[C@H]1C/C=C\Cc2ccccc2[C@@H](C(=O)C[C@@H](O)CC(C)=O)OC1=O` the “activity, negative = inhibition” value was inactive: -9.06%.
`Cc1[nH]oc(=O)c1N=Nc1ccc2[nH]c(=O)[nH]c2c1` was tested, and the Potency was inconclusive [inhibitor, single point].
In the case of `CCc1cc2cc3c(cc2nc1SCC(=O)OC(C)C)OCO3`, the Potency is reported as inconclusive [inhibitor, partial curve].
With `CCCCn1cnc2c(SCc3ccc(Br)cc3)nc(N)nc21` the Potency was inconclusive [inhibitor, partial curve].
`CC(=O)C1=C(O)C(=O)N(c2ccc(Br)cc2)C1c1ccccc1[N+](=O)[O-]` (centres undefined) was tested, and the Potency was inconclusive [inhibitor, partial curve].
`COc1ccc(C2=NN(c3ccc(C=O)cc3)C(c3ccccc3)C2)cc1` (centres undefined) was tested, and the “activity, negative = inhibition” value was inactive: 4.07%.
In the case of `CN1OC[C@@H]2CN(Cc3ccccc3)[C@H](c3ccc(N4CCCCC4)cc3)C[C@@H]21`, the Potency is reported as inconclusive [inhibitor, partial curve, poor fit].
In the case of `CCOc1ccccc1C=C1SC(=S)NC1=O`, the Potency is reported as inconclusive [inhibitor, partial curve].
In the case of `C=CC[C@@H](CC(=O)N(CCO)Cc1ccccc1)C(=O)N[C@H](COC(=O)[C@@H](CC=C)Cc1ccc(F)cc1)Cc1ccccc1`, the Potency is reported as inconclusive [inhibitor, single point].

— PubChem BioAssay AID720708 (National Center for Advancing Translational Sciences (NCATS), 2013)
Further: nearly all actives have a fitted effect of over 45% in size.
On the % scale 0 is the no-effect control and ±100 the full control effect; potency means the concentration at half of the fitted maximal effect; tags describe the fitted curve by direction and shape.
